{
  "source": "the supplement of paper PMC8728848",
  "assay_in_all_cases": "glycan array binding signal (z-score within array); higher = stronger binding",
  "conditions_in_all_cases": "glycan notation: IUPAC condensed, linker removed",
  "key": {"[1]": {"target": "Gal(b1-3)GlcNAc(b1-2)Man(a1-3)[Gal(b1-3)GlcNAc(b1-2)Man(a1-6)]Man(b1-4)GlcNAc(b1-4)GlcNAc", "in_short": "(§1)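 Arrays were curated from the Consortium for Functional Glycomics database, 3228 in total, and kept only where the protein sequence was available. Binding is expressed as a within-array Z-score. This score was averaged across arrays of the same protein sequence at different concentrations or buffers and across linkers, and negative values can be read as non-binding.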"}, "[2]": {"target": "Gal(b1-3)GlcNAc(b1-2)Man(a1-3)[Gal(b1-3)GlcNAc(b1-2)Man(a1-6)]Man(b1-4)GlcNAc(b1-4)[Fuc(a1-6)]GlcNAc", "in_short": "as §1"}, "[3]": {"target": "Gal(b1-3)GlcNAc(b1-2)Man(a1-3)[GlcNAc(b1-4)][Gal(b1-3)GlcNAc(b1-2)Man(a1-6)]Man(b1-4)GlcNAc(b1-4)GlcNAc", "in_short": "as §1"}, "[4]": {"target": "Gal(b1-3)GlcNAc(b1-2)[Gal(b1-3)GlcNAc(b1-6)]Man(a1-6)[Gal(b1-3)GlcNAc(b1-2)Man(a1-3)]Man(b1-4)GlcNAc(b1-4)GlcNAc", "in_short": "as §1"}, "[5]": {"target": "Gal(b1-3)GlcNAc(b1-3)Gal(b1-3)GlcNAc", "in_short": "as §1"}, "[6]": {"target": "Gal(b1-3)GlcNAc(b1-3)Gal(b1-4)Glc", "in_short": "as §1"}, "[7]": {"target": "Gal(b1-3)GlcNAc(b1-3)Gal(b1-4)GlcNAc", "in_short": "as §1"}, "[8]": {"target": "Gal(b1-3)GlcNAc(b1-3)Gal(b1-4)GlcNAc(b1-2)Man(a1-3)[Gal(b1-3)GlcNAc(b1-3)Gal(b1-4)GlcNAc(b1-2)Man(a1-6)]Man(b1-4)GlcNAc(b1-4)GlcNAc", "in_short": "as §1"}, "[9]": {"target": "Gal(b1-3)GlcNAc(b1-3)Gal(b1-4)GlcNAc(b1-2)[Gal(b1-3)GlcNAc(b1-3)Gal(b1-4)GlcNAc(b1-6)]Man(a1-6)[Gal(b1-3)GlcNAc(b1-3)Gal(b1-4)GlcNAc(b1-2)Man(a1-3)]Man(b1-4)GlcNAc(b1-4)[Fuc(a1-6)]GlcNAc", "in_short": "as §1"}, "[10]": {"target": "Gal(b1-3)GlcNAc(b1-3)Gal(b1-4)GlcNAc(b1-3)Gal(b1-4)GlcNAc(b1-2)[Gal(b1-3)GlcNAc(b1-3)Gal(b1-4)GlcNAc(b1-3)Gal(b1-4)GlcNAc(b1-6)]Man(a1-6)[Gal(b1-3)GlcNAc(b1-3)Gal(b1-4)GlcNAc(b1-3)Gal(b1-4)GlcNAc(b1-2)Man(a1-3)]Man(b1-4)GlcNAc(b1-4)[Fuc(a1-6)]GlcNAc", "in_short": "as §1"}, "[11]": {"target": "Gal(b1-3)GlcNAc(b1-3)Gal(b1-4)GlcNAc(b1-6)[Gal(b1-3)GlcNAc(b1-3)]Gal(b1-4)Glc", "in_short": "as §1"}, "[12]": {"target": "Gal(b1-3)GlcNAc(b1-3)Gal(b1-4)[Fuc(a1-3)]GlcNAc", "in_short": "as §1"}, "[13]": {"target": "Gal(b1-3)GlcNAc(b1-3)Gal(b1-4)[Fuc(a1-3)]GlcNAc(b1-6)[Gal(b1-3)GlcNAc(b1-3)]Gal(b1-4)Glc", "in_short": "as §1"}, "[14]": {"target": "Gal(b1-3)GlcNAc(b1-3)GalNAc", "in_short": "as §1"}, "[15]": {"target": "Gal(b1-3)GlcNAc(b1-6)Gal(b1-4)GlcNAc", "in_short": "as §1"}, "[16]": {"target": "Gal(b1-3)GlcNAc(b1-6)GalNAc", "in_short": "as §1"}, "[17]": {"target": "Gal(b1-3)GlcNAc(b1-6)[Gal(b1-3)]GalNAc", "in_short": "as §1"}, "[18]": {"target": "Gal(b1-3)GlcNAc6S", "in_short": "as §1"}, "[19]": {"target": "Gal(b1-3)[Fuc(a1-4)]GlcNAc", "in_short": "as §1"}, "[20]": {"target": "Gal(b1-3)[Fuc(a1-4)]GlcNAc(b1-2)Man", "in_short": "as §1"}, "[21]": {"target": "Gal(b1-3)[Fuc(a1-4)]GlcNAc(b1-2)Man(a1-3)[Gal(b1-3)[Fuc(a1-4)]GlcNAc(b1-2)Man(a1-6)]Man(b1-4)GlcNAc(b1-4)[Fuc(a1-6)]GlcNAc", "in_short": "as §1"}, "[22]": {"target": "Gal(b1-3)[Fuc(a1-4)]GlcNAc(b1-3)Gal(b1-3)[Fuc(a1-4)]GlcNAc", "in_short": "as §1"}, "[23]": {"target": "Gal(b1-3)[Fuc(a1-4)]GlcNAc(b1-3)Gal(b1-4)[Fuc(a1-3)]GlcNAc", "in_short": "as §1"}, "[24]": {"target": "Gal(b1-3)[Fuc(a1-4)]GlcNAc(b1-6)GalNAc", "in_short": "as §1"}, "[25]": {"target": "Gal(b1-3)[GlcNAc(b1-6)]GalNAc", "in_short": "as §1"}, "[26]": {"target": "Gal(b1-3)[Neu5Ac(a2-6)]GalNAc", "in_short": "as §1"}, "[27]": {"target": "Gal(b1-3)[Neu5Ac(a2-6)]GlcNAc(b1-4)Gal(b1-4)Glc", "in_short": "as §1"}, "[28]": {"target": "Gal(b1-3)[Neu5Ac(b2-6)]GalNAc", "in_short": "as §1"}, "[29]": {"target": "Gal(b1-4)Gal", "in_short": "as §1"}, "[30]": {"target": "Gal(b1-4)GalNAc(a1-3)[Fuc(a1-2)]Gal(b1-4)GlcNAc", "in_short": "as §1"}, "[31]": {"target": "Gal(b1-4)GalNAc(b1-3)[Fuc(a1-2)]Gal(b1-4)GlcNAc", "in_short": "as §1"}, "[32]": {"target": "Gal(b1-4)Glc", "in_short": "as §1"}, "[33]": {"target": "Gal(b1-4)Glc6S", "in_short": "as §1"}, "[34]": {"target": "Gal(b1-4)GlcNAc", "in_short": "as §1"}, "[35]": {"target": "Gal(b1-4)GlcNAc(a1-6)Gal(b1-4)GlcNAc", "in_short": "as §1"}, "[36]": {"target": "Gal(b1-4)GlcNAc(b1-2)Man", "in_short": "as §1"}, "[37]": {"target": "Gal(b1-4)GlcNAc(b1-2)Man(a1-3)Man(b1-4)GlcNAc(b1-4)GlcNAc", "in_short": "as §1"}},
  "note": "The list shows a part of the results.",
  "data": [
    {"binder": "Gal 8 (Mus musculus), Q9JL15 (protein) MGGSHHHHHHGMASMLSLNNLQNIIYNPIIPYVGTITEQLKPGSLIVIRGHVPKDSERFQVDFQLGNSLKPRADVAFHFNPRFKRSSCIVCNTLTQEKWGWEEITYDMPFRKEKSFEIVFMVLKNKFQVAVNGRHVLLYAHRISPEQIDTVGIYGKVNIHSIGFRFSSASALPHTLGDLQSMETSALGLTQINRENIQKPGKLQLSLPFEARLNASMGPGRTVVIKGEVNTNARSFNVDLVAGKTRDIALHLNPRLNVKAFVRNSFLQDAWGEEERNITCFPFSSGMYFEMIIYCDVREFKVAINGVHSLEYKHRFKDLSSIDTLSVDGDIRLLDVRSW", "values": [
      {"measurement": "glycan array binding signal (z-score)", "setting": "[1]", "result": -0.017},
      {"measurement": "glycan array binding signal (z-score)", "setting": "[2]", "result": 0.227},
      {"measurement": "glycan array binding signal (z-score)", "setting": "[3]", "result": 0.229},
      {"measurement": "glycan array binding signal (z-score)", "setting": "[4]", "result": 0.049},
      {"measurement": "glycan array binding signal (z-score)", "setting": "[5]", "result": 0.153},
      {"measurement": "glycan array binding signal (z-score)", "setting": "[6]", "result": -0.166},
      {"measurement": "glycan array binding signal (z-score)", "setting": "[7]", "result": -0.074},
      {"measurement": "glycan array binding signal (z-score)", "setting": "[8]", "result": 0.279},
      {"measurement": "glycan array binding signal (z-score)", "setting": "[9]", "result": 0.301},
      {"measurement": "glycan array binding signal (z-score)", "setting": "[10]", "result": 0.921},
      {"measurement": "glycan array binding signal (z-score)", "setting": "[11]", "result": -0.082},
      {"measurement": "glycan array binding signal (z-score)", "setting": "[12]", "result": 0.099},
      {"measurement": "glycan array binding signal (z-score)", "setting": "[13]", "result": 0.064},
      {"measurement": "glycan array binding signal (z-score)", "setting": "[14]", "result": -0.128},
      {"measurement": "glycan array binding signal (z-score)", "setting": "[15]", "result": -0.189},
      {"measurement": "glycan array binding signal (z-score)", "setting": "[16]", "result": -0.075},
      {"measurement": "glycan array binding signal (z-score)", "setting": "[17]", "result": 0.311},
      {"measurement": "glycan array binding signal (z-score)", "setting": "[18]", "result": 0.615},
      {"measurement": "glycan array binding signal (z-score)", "setting": "[19]", "result": -0.532},
      {"measurement": "glycan array binding signal (z-score)", "setting": "[20]", "result": -0.508},
      {"measurement": "glycan array binding signal (z-score)", "setting": "[21]", "result": -0.399},
      {"measurement": "glycan array binding signal (z-score)", "setting": "[22]", "result": -0.534},
      {"measurement": "glycan array binding signal (z-score)", "setting": "[23]", "result": -0.533},
      {"measurement": "glycan array binding signal (z-score)", "setting": "[24]", "result": -0.515},
      {"measurement": "glycan array binding signal (z-score)", "setting": "[25]", "result": -0.016},
      {"measurement": "glycan array binding signal (z-score)", "setting": "[26]", "result": -0.433},
      {"measurement": "glycan array binding signal (z-score)", "setting": "[27]", "result": 0.03},
      {"measurement": "glycan array binding signal (z-score)", "setting": "[28]", "result": -0.548},
      {"measurement": "glycan array binding signal (z-score)", "setting": "[29]", "result": -0.543},
      {"measurement": "glycan array binding signal (z-score)", "setting": "[30]", "result": 1.24},
      {"measurement": "glycan array binding signal (z-score)", "setting": "[31]", "result": -0.488},
      {"measurement": "glycan array binding signal (z-score)", "setting": "[32]", "result": -0.371},
      {"measurement": "glycan array binding signal (z-score)", "setting": "[33]", "result": -0.157},
      {"measurement": "glycan array binding signal (z-score)", "setting": "[34]", "result": -0.117},
      {"measurement": "glycan array binding signal (z-score)", "setting": "[35]", "result": 0.071},
      {"measurement": "glycan array binding signal (z-score)", "setting": "[36]", "result": -0.063},
      {"measurement": "glycan array binding signal (z-score)", "setting": "[37]", "result": 0.07}
    ]}
  ]
}
